# Experimental data taken from the supplement of paper PMC3334620.
# Whole data set: some 33,000 sequences, median “E-score (-0.5 to 0.5)” near -0.035, cut for the highest 2% near 0.34. This is one part of the list.
# Target: T1, Mot3 (UniProt P54785)
# T1 sequence: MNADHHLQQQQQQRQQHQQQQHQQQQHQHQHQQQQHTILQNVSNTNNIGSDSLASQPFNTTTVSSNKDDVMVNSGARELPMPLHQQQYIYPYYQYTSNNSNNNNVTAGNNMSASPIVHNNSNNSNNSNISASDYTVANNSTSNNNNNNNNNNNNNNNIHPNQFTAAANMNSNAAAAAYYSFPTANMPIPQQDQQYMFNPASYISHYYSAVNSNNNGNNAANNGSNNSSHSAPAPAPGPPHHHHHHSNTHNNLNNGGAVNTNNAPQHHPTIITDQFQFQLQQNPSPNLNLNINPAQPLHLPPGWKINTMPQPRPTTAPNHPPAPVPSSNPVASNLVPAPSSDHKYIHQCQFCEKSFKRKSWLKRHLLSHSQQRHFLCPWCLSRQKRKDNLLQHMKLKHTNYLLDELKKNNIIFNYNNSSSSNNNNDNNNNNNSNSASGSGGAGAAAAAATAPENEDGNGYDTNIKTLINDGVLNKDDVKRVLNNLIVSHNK
# Assay: PBM E-score (8-mer binding enrichment) (E-score (-0.5 to 0.5)); higher = stronger / more preferred TF binding; most listed sequences are background and not binding sites
# Conditions: protein concentration: 200 nM; construct: GST-full length
# In short: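 Each ungapped eight-base word and its reverse complement, pooled, received an E-score from the Universal PBM Analysis Suite. Underlying scans, normalised with masliner, recorded fluorescent anti-GST bound to GST-tagged yeast transcription factors. These were applied at about 100-200 nM to universal all-10-mer Agilent arrays double-stranded by primer extension.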
row,Sequence,PBM E-score
1,CGTGTCTC,-0.0265
2,AAGCAGAT,-0.149
3,ACGATACC,0.0374
4,CAATCAAG,0.135
5,CACAGTTA,0.0944
6,AAATCGCC,-0.255
7,ATGTAGAA,0.359
8,CGAAAAGA,0.159
9,GGGAGGGA,-0.149
10,AAAGCATG,0.203
11,CCGGGAAA,-0.16
12,ATTATGCA,0.0942
13,GAGTAACA,0.142
14,CATAAATC,-0.0763
15,GATTTGGA,-0.107
16,CTGTAACC,0.177
17,CAGGGATG,0.034
18,CGATTTAA,-0.0874
19,CATTAAAC,0.211
20,ATGTCCGA,-0.0627
21,AGTGGACC,-0.275
22,AATGGGGC,-0.218
23,AAAATATT,0.0713
24,GCTCTCCC,-0.174
25,AAGGTTTA,0.00793

row,Sequence,PBM E-score
1,TTGTGAAA,0.111
2,ACATGATC,0.385
3,CGCCAGCG,-0.0878
4,CAAGAGGA,0.038
5,GACCAACC,-0.0855
6,AAAGCAGA,0.102
7,ATATTCCC,-0.133
8,GAATTGCC,0.246
9,ACATACCC,0.235
10,GCAAAGGA,0.144
11,ATCAACTA,0.206
12,ATCTTCTA,-0.00375
13,AAGGGTCA,-0.0956
14,GCATTCCC,-0.185
15,TACCTCAA,0.0123
16,ACGGAAGC,-0.0218
17,CACCCTGC,-0.145
18,CACCGGAC,-0.0953
19,ACATTGGC,0.0739
20,ACCGTCGT,-0.119
21,CATCTTCC,-0.0698
22,GTCGGTTA,-0.132
23,GGGCGAAC,-0.119
24,CGGGCGAA,0.00822
25,ATACGACC,-0.166

row,Sequence,PBM E-score
1,CGCGCTCA,-0.115
2,AAGCGAAC,0.0812
3,AAATCATA,0.0178
4,CGCCAGGA,-0.117
5,ACGAGCAG,-0.00968
6,AGCGACGG,-0.18
7,CTGGGCTA,-0.249
8,CTATTTCA,-0.0187
9,ATCCAACG,-0.111
10,AATGCATT,-0.187
11,ACACACTA,0.178
12,AAGGAAAC,0.423
13,ACCCAGTG,-0.108
14,GACGGGAC,-0.288
15,GAATCCAA,-0.313
16,CAGGATGG,-0.15
17,TAGCGATA,-0.0997
18,AGGCGAAA,0.00013
19,CGGAGAGA,-0.143
20,AACCATGA,0.109
21,CAGGTTAC,0.138
22,ACGGATAT,0.00315
23,CCAGGTCC,-0.258
24,TATTGACA,0.279
25,AGGGTTCG,-0.0343

row,Sequence,PBM E-score
1,TCCTTGAA,0.00893
2,AACACCGT,-0.00414
3,GACCAGCA,-0.237
4,ACAGCCCT,-0.00337
5,CGACATCG,0.0358
6,GTTATCTA,-0.104
7,CTCTCACC,-0.229
8,GCCCCCCC,-0.358
9,AATTAGCT,0.0337
10,GATATTCA,-0.24
11,CTGCGGAA,-0.131
12,AGCGCGAA,-0.0252
13,AACATAGC,0.228
14,CACATCCA,0.104
15,GCATAGGC,0.166
16,AGGGGTAT,-0.267
17,CTATAATA,0.0283
18,CAAGCATA,0.0591
19,GTCGCGGA,-0.325
20,CTCGGAAA,0.00029
21,CTTGCAGA,-0.215
22,GGATGTTA,0.172
23,ACGCCGTA,0.153
24,ACAACACT,0.256
25,CCAAATAC,0.0884

row,Sequence,PBM E-score
1,CAACGTAC,0.0982
2,AAGGCTTG,-0.0805
3,CCCTCTTA,-0.0889
4,ACGCATGC,0.169
5,CCAGCGGA,-0.219
6,ACTAAATA,0.0693
7,CGATAGCG,-0.157
8,AACCACGA,-0.111
9,CAGATGCA,-0.0813
10,AGAAACAA,0.0948
11,CTTGCAAA,0.0917
12,GAATTGTA,0.0781
13,CATAACCC,-0.0772
14,CATTTAGG,0.0581
15,AGCTGGTG,0.021
16,CCTTAAAG,0.0625
17,CATGGCGG,-0.197
18,ATACAGAA,-0.024
19,CCGTGGCG,-0.13
20,CGCGGCTC,-0.263
21,CCGTTCGA,-0.238
22,CTGCAGAA,0.0201
23,GATTATGA,0.00398
24,CAAGTTCA,-0.00983
25,GCTTCGGA,-0.189

row,Sequence,PBM E-score
1,CCAAAAAG,-0.0295
2,GTGTTATA,0.307
3,AATTTTAC,0.222
4,ACCACGGG,-0.102
5,ACCGGTTA,0.0189
6,CCCGCCGA,-0.268
7,ACATTAAG,0.211
8,ATAATCGC,-0.0824
9,GGAGGCTA,-0.232
10,CCCAAGGC,0.0287
11,GTTGGGTA,0.136
12,CGTCAACG,-0.0672
13,ACCAGCTC,-0.047
14,TCGGTAAA,0.0601
15,CCTGCCGC,-0.0394
16,GATTGTGC,-0.00636
17,ACATCGCG,0.0345
18,TAAGTTAA,0.205
19,GTATGCAC,-0.0721
20,CACTTTTC,-0.0644
21,GATCGGCC,-0.266
22,CCGCCGCG,-0.156
23,ATCCTTTG,-0.046
24,ACCTTTTA,0.00456
25,CCTGGATA,-0.135

row,Sequence,PBM E-score
1,ATGCCCGG,-0.332
2,AAAATCCT,0.0944
3,GCAGTGTA,0.069
4,GAGTACTC,0.0282
5,ACAGGCCG,-0.00279
6,TGGTGGAA,-0.112
7,AACACTCA,0.0881
8,AGGAGCCA,-0.0259
9,ACTGACGA,-0.0634
10,AGATACTC,-0.0757
11,GAAAAATA,-0.0179
12,GCTGCCAC,-0.275
13,AAGGACAT,0.134
14,AGTCTCCG,-0.0806
15,GAACCTTC,0.179
16,GAAAGCGC,0.0787
17,GTAAAAGA,0.227
18,TTCCTCAA,0.0878
19,ACAGCTGG,-0.161
20,CGAAGCAG,-0.143
21,AACCAGTG,-0.0417
22,ACCAAAGT,-0.141
